Source: patent US12501864B2 (priority 2020, dated 2025)

Details: in vivo

## CCN(Cc1cccc(S(=O)(=O)[O-])c1)c1ccc(C(=C2C=CC(=[N+](CC)Cc3cccc(S(=O)(=O)[O-])c3)C=C2)c2ccccc2S(=O)(=O)[O-])cc1.[Na+].[Na+] [Brilliant Blue E 133]
  distribution of the test substance within the stem: ~5 meters
